Laboratory results as given in patent US20260274891A1, “¿ OPIOID RECEPTOR AGONIST AND USE THEREOF” (CHENGDU AODA BIOTECHNOLOGY CO., LTD., priority 2023, published 2026).
Like-named read-outs stand apart in the source and are kept apart here. Not every detail of the peptide structures is certain; ends, links or a residue may be inferred. Square brackets hold non-standard residues; d marks the D form. Peptide text beside a SMILES is read from it. * marks the point of attachment. X25 = NCCCC[C@@H](NC(=O)COCCOCCOCCNC(=O)C1(N)CCN(*)CC1)C(N)=O; X19 = NCCCC[C@H](NC(=O)COCCOCCOCCNC(=O)C1(N)CCN(*)CC1)C(=O)O; X7 = NCCCC[C@@H](NC(=O)COCCOCCOCCNC(=O)C1(N)CCN(*)CC1)C(=O)O; Piperidinyl(4-NH2,4-CONH2) = NC(=O)C1(N)CCN(*)CC1; X10 = NCCCC[C@@H](NC(=O)C1(N)CCN(*)CC1)C(=O)O; X1 = NCCCC[C@@H](NC(=O)C1(N)CCN(*)CC1)C(N)=O; X4 = NCCCC[C@H](NC(=O)C1(N)CCN(*)CC1)C(=O)O; X6 = NCCCC[C@H](NC(=O)C1(N)CCN(*)CC1)C(N)=O; dAla(cPr) = N[C@H](CC1CC1)C(=O)O; Trifluoroethyl = FC(F)(F)C*; iPr = CC(C)*

Biological target: T1, human κ opioid receptor (OPRK1) (Homo sapiens, UniProt P41145)
T1 construct: expressed in transfected cells; host or cells: CHO-K1
Assay: Determination of activities of κ receptor agonists: inhibition of forskolin-stimulated cAMP release (HTRF) in stably transfected CHO-K1 cells
Type: cell-based
Settings: for EC50: CHO-K1 cell line stably expressing opioid receptors, forskolin-stimulated cAMP, HTRF; for Relative Activity %: relative to Difelikefalin = 100.0
Outline: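 Stably transfected CHO-K1 cells stimulated with graded agonist concentrations in presence of forskolin (concentration not specified). Inhibition of forskolin-stimulated cAMP read by HTRF as relative light units; EC50 calculated from dose-response.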

T1 sequence (P41145 whole entry): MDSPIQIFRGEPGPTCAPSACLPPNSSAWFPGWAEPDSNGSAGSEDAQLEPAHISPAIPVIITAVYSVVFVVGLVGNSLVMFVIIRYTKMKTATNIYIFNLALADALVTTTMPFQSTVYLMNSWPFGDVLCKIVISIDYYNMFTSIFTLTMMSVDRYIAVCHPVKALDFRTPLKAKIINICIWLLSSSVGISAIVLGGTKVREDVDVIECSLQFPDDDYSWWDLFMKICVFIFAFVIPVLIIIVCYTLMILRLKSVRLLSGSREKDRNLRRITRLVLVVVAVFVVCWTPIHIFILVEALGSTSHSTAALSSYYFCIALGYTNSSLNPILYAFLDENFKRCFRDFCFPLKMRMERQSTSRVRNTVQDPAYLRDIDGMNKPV

SMILES: CCOc1ccc(C[C@@H](NC(=O)[C@H](N)Cc2ccccc2)C(=O)N[C@H](CC2CC2)C(=O)N[C@H](CCCCN)C(=O)N2CCC(N)(C(=O)NCCOCCOCCOCC(=O)N[C@@H](CCCCN)C(=O)O)CC2)cc1 [Compound 82, D-Phe-D-Tyr(Et)-D-cyclopropylalanine-D-Lys-4-aminopiperidine-4-carboxamide-PEG3CH2CO-Lys-OH] (H-[dF][dY](Et)[dAla(cPr)][dK]-X19)
- EC50 (read-out: EC50): 0.0569 nM
- Relative Activity %: 1067.1%

SMILES: CCOc1ccc(C[C@@H](NC(=O)[C@H](N)Cc2ccccc2)C(=O)N[C@H](CC2CC2)C(=O)N[C@H](CCCCN)C(=O)N2CCC(N)(C(=O)NCCOCCOCCOCC(=O)N[C@H](CCCCN)C(N)=O)CC2)cc1 [Compound 83, D-Phe-D-Tyr(Et)-D-cyclopropylalanine-D-Lys-4-aminopiperidine-4-carboxamide-PEG3CH2CO-D-Lys-NH2] (H-[dF][dY](Et)[dAla(cPr)][dK]-X25)
- EC50: 0.0557 nM
- Relative Activity %: 1090.1%

SMILES: CCOc1ccc(C[C@@H](NC(=O)[C@H](N)Cc2ccccc2)C(=O)N[C@H](CC2CC2)C(=O)N[C@H](CCCCN)C(=O)N2CCC(N)(C(=O)NCCOCCOCCOCC(=O)N[C@H](CCCCN)C(=O)O)CC2)cc1 [Compound 84, D-Phe-D-Tyr(Et)-D-cyclopropylalanine-D-Lys-4-aminopiperidine-4-carboxamide-PEG3CH2CO-D-Lys-OH] (H-[dF][dY](Et)[dAla(cPr)][dK]-X7)
- EC50: 0.0561 nM
- Relative Activity %: 1082.4%

SMILES: COc1ccc(C[C@@H](NC(=O)[C@H](N)Cc2ccccc2)C(=O)N[C@H](CC(C)C)C(=O)N[C@H](CCCCN)C(=O)N2CCC(N)(C(N)=O)CC2)cc1 [Compound 85, D-Phe-D-Tyr(Me)-D-Leu-D-Lys-4-aminopiperidine-4-carboxamide-NH2] (H-[dF][dY](Me)[dL][dK]-{Piperidinyl(4-NH2,4-CONH2)}; N-terminus assumed)
- EC50: 0.126 nM
- Relative Activity %: 483.8%

SMILES: COc1ccc(C[C@@H](NC(=O)[C@H](N)Cc2ccccc2)C(=O)N[C@H](CC(C)C)C(=O)N[C@H](CCCCN)C(=O)N2CCC(N)(C(=O)N[C@@H](CCCCN)C(=O)O)CC2)cc1 [Compound 88, D-Phe-D-Tyr(Me)-D-Leu-D-Lys-4-aminopiperidine-4-carboxamide-Lys-OH] (H-[dF][dY](Me)[dL][dK]-X4)
- EC50: 0.0435 nM
- Relative Activity %: 1395.9%

SMILES: COc1ccc(C[C@@H](NC(=O)[C@H](N)Cc2ccccc2)C(=O)N[C@H](CC(C)C)C(=O)N[C@H](CCCCN)C(=O)N2CCC(N)(C(=O)N[C@H](CCCCN)C(N)=O)CC2)cc1 [Compound 89, D-Phe-D-Tyr(Me)-D-Leu-D-Lys-4-aminopiperidine-4-carboxamide-D-Lys-NH2] (H-[dF][dY](Me)[dL][dK]-X1; N-terminus assumed)
- EC50: 0.0436 nM
- Relative Activity %: 1392.7%

SMILES: COc1ccc(C[C@@H](NC(=O)[C@H](N)Cc2ccccc2)C(=O)N[C@H](CC(C)C)C(=O)N[C@H](CCCCN)C(=O)N2CCC(N)(C(=O)N[C@H](CCCCN)C(=O)O)CC2)cc1 [Compound 90, D-Phe-D-Tyr(Me)-D-Leu-D-Lys-4-aminopiperidine-4-carboxamide-D-Lys-OH] (H-[dF][dY](Me)[dL][dK]-X10)
- EC50: 0.0442 nM
- Relative Activity %: 1373.8%

SMILES: CC(C)C[C@@H](NC(=O)[C@@H](Cc1ccc(OCC(F)(F)F)cc1)NC(=O)[C@H](N)Cc1ccccc1)C(=O)N[C@H](CCCCN)C(=O)N1CCC(N)(C(=O)N[C@@H](CCCCN)C(N)=O)CC1 [Compound 93, D-Phe-D-Tyr(CH2CF3)-D-Leu-D-Lys-4-aminopiperidine-4-carboxamide-Lys-NH2] (H-[dF][dY](Trifluoroethyl)[dL][dK]-X6; N-terminus assumed)
- EC50: 0.0512 nM
- Relative Activity %: 1185.9%

SMILES: CC(C)C[C@@H](NC(=O)[C@@H](Cc1ccc(OCC(F)(F)F)cc1)NC(=O)[C@H](N)Cc1ccccc1)C(=O)N[C@H](CCCCN)C(=O)N1CCC(N)(C(=O)N[C@@H](CCCCN)C(=O)O)CC1 [Compound 94, D-Phe-D-Tyr(CH2CF3)-D-Leu-D-Lys-4-aminopiperidine-4-carboxamide-Lys-OH] (H-[dF][dY](Trifluoroethyl)[dL][dK]-X4)
- EC50: 0.0526 nM
- Relative Activity %: 1154.4%

SMILES: CC(C)C[C@@H](NC(=O)[C@@H](Cc1ccc(OC(C)C)cc1)NC(=O)[C@H](N)Cc1ccccc1)C(=O)N[C@H](CCCCN)C(=O)N1CCC(N)(C(N)=O)CC1 [Compound 97, D-Phe-D-Tyr(Ipr)-D-Leu-D-Lys-4-aminopiperidine-4-carboxamide-NH2] (H-[dF][dY](iPr)[dL][dK]-{Piperidinyl(4-NH2,4-CONH2)}; N-terminus assumed)
- EC50: 0.148 nM
- Relative Activity %: 411.4%

SMILES: CC(C)C[C@@H](NC(=O)[C@@H](Cc1ccc(OC(C)C)cc1)NC(=O)[C@H](N)Cc1ccccc1)C(=O)N[C@H](CCCCN)C(=O)N1CCC(N)(C(=O)N[C@@H](CCCCN)C(N)=O)CC1 [Compound 99, D-Phe-D-Tyr(Ipr)-D-Leu-D-Lys-4-aminopiperidine-4-carboxamide-Lys-NH2] (H-[dF][dY](iPr)[dL][dK]-X6; N-terminus assumed)
- EC50: 0.0726 nM
- Relative Activity %: 836.4%

SMILES: CC(C)C[C@@H](NC(=O)[C@@H](Cc1ccc(F)cc1)NC(=O)[C@H](N)Cc1ccccc1)C(=O)N[C@H](CCCCN)C(=O)N1CCC(N)(C(N)=O)CC1 [Compound 103, D-Phe-D-Phe(4-F)-D-Leu-D-Lys-4-aminopiperidine-4-carboxamide-NH2]
- EC50: 0.221 nM
- Relative Activity %: 275.0%

SMILES: CC(C)C[C@@H](NC(=O)[C@@H](Cc1ccc(F)cc1)NC(=O)[C@H](N)Cc1ccccc1)C(=O)N[C@H](CCCCN)C(=O)N1CCC(N)(C(=O)N[C@@H](CCCCN)C(=O)O)CC1 [Compound 106, D-Phe-D-Phe(4-F)-D-Leu-D-Lys-4-aminopiperidine-4-carboxamide-Lys-OH]
- EC50: 0.078 nM
- Relative Activity %: 778.5%

SMILES: CC(C)C[C@@H](NC(=O)[C@@H](Cc1ccc(F)cc1)NC(=O)[C@H](N)Cc1ccccc1)C(=O)N[C@H](CCCCN)C(=O)N1CCC(N)(C(=O)N[C@H](CCCCN)C(N)=O)CC1 [Compound 107, D-Phe-D-Phe(4-F)-D-Leu-D-Lys-4-aminopiperidine-4-carboxamide-D-Lys-NH2]
- EC50: 0.0773 nM
- Relative Activity %: 785.5%

SMILES: CC(C)C[C@@H](NC(=O)[C@@H](Cc1ccc(F)cc1)NC(=O)[C@H](N)Cc1ccccc1)C(=O)N[C@H](CCCCN)C(=O)N1CCC(N)(C(=O)N[C@H](CCCCN)C(=O)O)CC1 [Compound 108, D-Phe-D-Phe(4-F)-D-Leu-D-Lys-4-aminopiperidine-4-carboxamide-D-Lys-OH]
- EC50: 0.0785 nM
- Relative Activity %: 773.5%

SMILES: CC(C)C[C@@H](NC(=O)[C@@H](Cc1ccc(Cl)cc1)NC(=O)[C@H](N)Cc1ccccc1)C(=O)N[C@H](CCCCN)C(=O)N1CCC(N)(C(N)=O)CC1 [Compound 109, D-Phe-D-Phe(4-C1)-D-Leu-D-Lys-4-aminopiperidine-4-carboxamide-NH2]
- EC50: 0.151 nM
- Relative Activity %: 402.1%

SMILES: CC(C)C[C@@H](NC(=O)[C@@H](Cc1ccc(Cl)cc1)NC(=O)[C@H](N)Cc1ccccc1)C(=O)N[C@H](CCCCN)C(=O)N1CCC(N)(C(=O)N[C@H](CCCCN)C(N)=O)CC1 [Compound 113, D-Phe-D-Phe(4-C1)-D-Leu-D-Lys-4-aminopiperidine-4-carboxamide-D-Lys-NH2]
- EC50: 0.0494 nM
- Relative Activity %: 1229.1%
